# Out of some 110,000 compounds screened, about 230 (0.21%) showed an effect of 50% or more. The list shows a part of the results.
# Target: DPAP1 (Plasmodium falciparum, UniProt Q8IIJ9)
# Assay: primary screen, percent inhibition; read by cleavage of a fluorogenic dipeptide substrate; higher = more effect of the substance
# Set-up: species or system P. falciparum D10 trophozoite lysates; single well
# 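Note: 30 min substrate incubation versus DMSO and 10 µM JCP410 controls.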
# Sequence of DPAP1 (Q8IIJ9 whole entry, looked up): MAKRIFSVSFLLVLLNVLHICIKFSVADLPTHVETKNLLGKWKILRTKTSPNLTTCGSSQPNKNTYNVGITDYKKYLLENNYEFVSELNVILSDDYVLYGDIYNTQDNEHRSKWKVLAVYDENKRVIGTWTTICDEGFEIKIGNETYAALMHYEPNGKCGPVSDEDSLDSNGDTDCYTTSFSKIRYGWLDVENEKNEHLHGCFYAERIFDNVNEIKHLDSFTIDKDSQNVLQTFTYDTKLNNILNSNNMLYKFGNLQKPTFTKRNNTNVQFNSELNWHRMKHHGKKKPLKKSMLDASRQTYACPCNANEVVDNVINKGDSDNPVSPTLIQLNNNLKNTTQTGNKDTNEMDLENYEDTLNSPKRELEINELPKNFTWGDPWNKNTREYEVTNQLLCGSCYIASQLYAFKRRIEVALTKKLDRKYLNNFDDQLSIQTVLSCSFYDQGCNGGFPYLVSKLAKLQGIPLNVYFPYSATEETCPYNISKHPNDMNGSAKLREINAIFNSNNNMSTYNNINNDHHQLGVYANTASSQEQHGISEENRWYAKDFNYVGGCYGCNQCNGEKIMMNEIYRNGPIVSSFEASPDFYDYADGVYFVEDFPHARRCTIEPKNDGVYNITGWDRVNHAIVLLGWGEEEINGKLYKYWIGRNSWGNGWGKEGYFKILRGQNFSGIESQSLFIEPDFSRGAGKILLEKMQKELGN
row,Structure (SMILES),% Inhibition @ 10 uM [%]
1,COc1ccccc1-c1c(C)nn2c(N(C)Cc3ccccc3)cc(C)nc12,-1.46
2,COc1ccc(OC)c(/C=C/C(=O)NCCN2CCC(N(C)C3CCCCC3C)CC2)c1 (stereo not drawn),-1.05
3,COCCn1c(/C=C/c2ccccc2)nc2ccccc21,-2.5
4,CN(C)C(=O)N1CCC(C(=O)NCCC2=CCCCC2)CC1,-3.12
5,Cc1cccc(CN2CCN(CC(=O)N3CCc4ccccc4C3)C2=O)c1,0.128
6,CC(C)(C)NC(=O)CCn1nc(-c2ccc(Cl)cc2)c2ccccc2c1=O,2.25
7,CCC(C)N1C(=O)S/C(=C/c2ccc(OC)c(OC)c2)C1=O (stereo not drawn),1.08
8,Cc1nnc2c3c4c(sc3nc(C)n12)CCCC4,5.75
9,COc1cc2oc(=O)c(CC(=O)N3CCOCC3)c(C)c2cc1OC,4.13
10,CCOc1ccc(C(=O)N2CCCN(C(=O)c3ccc(OCC)cc3)CC2)cc1,-2.8
11,COC(=O)c1c(N)sc(Cc2ccccc2)c1C,11
12,Brc1ccc(-c2noc(COc3ccccc3)n2)cc1,4.98
13,Cc1ccc(N(CC(=O)NCC2CCCO2)S(=O)(=O)c2ccccc2)cc1C (stereo not drawn),-2.83
14,Cc1ccc(-c2nc3ncccn3c2NC2CCCC2)o1,1.75
15,COC(=O)c1c(C)[nH]c(-c2ccccc2)c1/C=C/C(O)=C1\C(=O)Oc2ccccc2C1=O,-3.44
16,CCOc1cc(C2C=C(c3cccc(C)c3)Nc3nnnn32)ccc1OC(F)F (stereo not drawn),1.73
17,CC(C)C[C@H](NC1=NC(=O)c2ccccc21)C(=O)NCC#N,-10.7
18,CN(C)CCCNC(=O)c1nc(-c2ccc(C(F)(F)F)cc2)no1,0.895
19,Cc1ccc(-c2nnc3n2NC(=O)CS3)cc1,7.5
20,COCCNC(=O)c1cn(CCOC)c(=O)c2c1c1ccccc1n2C,-7.85
21,Cc1cc(C)cc(OC(C)C(=O)N(Cc2ccc(Cl)cc2)C2CCS(=O)(=O)C2)c1 (stereo not drawn),-8.79
22,Cc1ccnc(N2C(=O)c3ccc(C45CC6CC(CC(C6)C4)C5)cc3C2=O)c1,1.72
23,C/C(=N\OCC(=O)Nc1nc2ccccc2s1)c1cccs1,-8.55
24,CCCCNC(=O)c1cccc(Br)c1,-3.55
25,COc1cccc(C2C3=C(O)CCCC3=NC(C)=C2C(=O)Nc2ccccc2C)c1OC (stereo not drawn),2.38

row,Structure (SMILES),% Inhibition @ 10 uM [%]
1,Cc1ccc(-c2[nH]nc3c2C2(C(=O)Nc4ccc(F)cc42)C(C#N)=C(N)O3)cc1 (stereo not drawn),-2.83
2,COc1ccc2c(Sc3ccc(Cl)cc3)c(C(=O)NCCN3CCOCC3)[nH]c2c1,-3.1
3,CCCOC(=O)C1=C(C)N(C)C(=O)NC1c1cc(OC)ccc1OC (stereo not drawn),-5.92
4,Cc1cccc(CC(=O)NCCSc2c[nH]c3ccccc23)c1,-2.49
5,C=CCOc1ccc(C2C3=C(CC(C)(C)CC3=O)OC3=C2C(=O)CC(C)(C)C3)cc1,-1.78
6,CCOc1ccc(-c2cc(NC(=O)c3cccc(F)c3)c(C(=O)OC)s2)cc1,-7.97
7,CCOc1cc(/C=C2\C(=N)N3N=C(S(C)(=O)=O)SC3=NC2=O)ccc1OCc1ccccc1,-3.39
8,COc1cccc(C(=O)c2sc3nc(C)c(C)c(C)c3c2N)c1,4.28
9,COCCNS(=O)(=O)c1c[nH]c(C(=O)OC)c1,4.14
10,COc1ccc(Cn2c(SCC(=O)C(C)(C)C)nc3sc(C(=O)N(C)C)c(C)c3c2=O)cc1,1.24
11,C=CCn1c(C)cs/c1=N\c1ccc(C(=O)O)cc1,4
12,N#Cc1cccc(NC(=O)c2sc3nc4c(c(C(F)(F)F)c3c2N)CCC4)c1,25.2
13,COc1ccc(CC/N=C/C2=C(O)c3sccc3N(Cc3ccc(C)cc3)S2(=O)=O)cc1OC,-0.909
14,O=C(O)c1csc2c1CCCC2=O,4.66
15,COc1ccc(-n2c(C)cc(/C=C3/C(=N)N4C(=NC3=O)SN=C4S(C)(=O)=O)c2C)cc1Cl,6.59
16,Cc1nc(-c2ccccc2)sc1C(N)=O,24.4
17,O=C(C1COc2cc(S(=O)(=O)NCCCc3ccccc3)ccc2O1)N1CCCCC1 (stereo not drawn),-2.29
18,CCOC(=O)C1=C(C)N=c2s/c(=C\c3ccc(O)cc3)c(=O)n2C1c1ccccc1Cl (stereo not drawn),7.55
19,CCCCOc1ccc(CC2CCC(=O)NC2=O)cc1 (stereo not drawn),2.94
20,CCC(C)NC(=O)CS(=O)Cc1nc(-c2cccc(C)c2)oc1C (stereo not drawn),-1.05
21,Cc1sc(NC(=O)c2ccccc2)c(C(c2ccncc2)N2CCN(C)CC2)c1C (stereo not drawn),2.64
22,CC(C)(C)C1(C)OC(=O)C(=Cc2cccc(O)c2)C(=O)O1 (stereo not drawn),0.275
23,CCOC(=O)c1c(N)sc(C(=O)OC(C)(C)C)c1C,14.2
24,CN1CCC(NCCc2ccc(F)cc2)CC1,-5.11
25,Cc1cc(C)nc(NS(=O)(=O)c2ccc(NC(=O)Cc3ccc(Cl)cc3)cc2)n1,3.53

row,Structure (SMILES),% Inhibition @ 10 uM [%]
1,OCCn1c(-c2ccccc2)cs/c1=N\c1ccccc1,5.73
2,O=C(C1=C(O)C(=O)N(CCCN2CCOCC2)C1c1cccs1)c1cc2ccccc2o1 (stereo not drawn),13.5
3,CCOc1cc2c(cc1OCC)C1C(C(=O)Nc3cccnc3)c3ccccc3C(=O)N1CC2 (stereo not drawn),4.05
4,CCN(CC)c1ccc(C(O)c2nc3ccccc3n2CC)cc1 (stereo not drawn),1.72
5,CC(Nc1nc(N2CCN(C(=O)C3CCCC3)CC2)nc2ccccc12)c1ccccc1 (stereo not drawn),-2.05
6,Cc1cccc2cc3ccccc3nc12,2.32
7,O=S(=O)(c1cccc(C(F)(F)F)c1)N1CCNCC1,-4.19
8,Cc1nc2ccc(/C=C/C(=O)O)cc2s1,1.54
9,COc1ccc(Nc2nc(-c3ccccc3)c(Oc3ccc(Cl)cc3)s2)cc1,-2.02
10,CC(C)CC(NC(=O)c1cccc(Br)c1)C(=O)NCC#N (stereo not drawn),3.19
11,CC12COC3(C(=O)N4CCCCCC4)CC1CCC32C (stereo not drawn),1.02
12,O=C1C(NS(=O)(=O)c2ccccc2)=C/C(=N\S(=O)(=O)c2ccc(Cl)cc2)c2ccccc21,3.15
13,O=C(COc1ccc2ccccc2c1)Nc1c2c(nn1-c1ccc(Cl)cc1)CS(=O)(=O)C2,-3.83
14,CCCCNC(=O)C1CCN(C(=O)c2c(C)nn(-c3ccccc3)c2-n2cccc2)CC1,3.4
15,CCN(CC)C(=O)Cn1cc(SCC(=O)NCc2ccc(F)cc2)c2ccccc21,3.25
16,c1cc(-c2ncnn2-c2ccncc2)ccn1,1.57
17,COC(=O)Nc1ccc2c(c1)N(C(=O)CCN1CCN3CCCC3C1)c1ccccc1CC2 (stereo not drawn),6.15
18,CCOC(=O)N1CCN(S(=O)(=O)/C=C/c2ccccc2)CC1,21.7
19,CC1(C)CC(=O)C2=C(C1)N(c1cccc(C(F)(F)F)c1)C(N)=C(C#N)C2c1ccsc1 (stereo not drawn),-1.44
20,Fc1ccc(CN2CCOCC2)cc1Br,-4.04
21,Cc1cc(O)nc(NC(=O)Cc2ccccc2)n1,0.755
22,COc1ccccc1Sc1ccccc1CN(C)C,-1.06
23,CC(NC(=O)c1cccc(N)c1)c1ccccc1 (stereo not drawn),7.55
24,c1cc(Nc2ncnc3sc4c(c23)CCC4)ccn1,2.62
25,CCOc1ccc(N2CCc3c2nc2ccccc2c3/N=C2/CCCN2C)cc1,7.68

row,Structure (SMILES),% Inhibition @ 10 uM [%]
1,CCOc1ccc(C2C(C(=O)c3ccc(F)cc3)=C(O)C(=O)N2Cc2cccnc2)cc1OC (stereo not drawn),3.8
2,COc1ccc(Br)cc1CNC(=O)Cn1nc(C)n2c(cc3cc(C)ccc32)c1=O,0.0198
3,CCC(CC)C(=O)Nc1ccc(OC)cc1OC,4.49
4,COCCN1C(=O)C(CC(=O)Nc2ccc(F)cc2)S/C1=N\c1ccccc1 (stereo not drawn),-5.1
5,CCCCCC(=O)Nc1ncc2c(n1)CC(c1ccc(C(C)(C)C)cc1)CC2=O (stereo not drawn),-6.78
6,O=C(O)COc1ccc2c(=O)c(Oc3ccc(Cl)cc3)coc2c1,-6.37
7,CCOC(=O)c1c(N)n(CCCO)c2nc3ccccc3nc12,-4.01
8,O=C(CCN1CCCCC1)Nc1c2c(cc3c1CCC3)CCC2,-6.68
9,c1cc2c(cc1C1OCC3(CO1)COC(c1ccc4c(c1)OCO4)OC3)OCO2 (stereo not drawn),-4.26
10,CCOC(=O)c1sc2nc3c(c(-c4ccc(Cl)cc4)c2c1N)CCC3,-0.458
11,COc1ccc(C2CC3=NC(C)=C(C(=O)OC(C)C)C(c4cccnc4)C3=C(O)C2)cc1 (stereo not drawn),-3.69
12,c1coc(CNc2ccc3c(c2)OCO3)c1,1.83
13,COc1cc2nc(SCc3ccc(C#N)cc3)n3nc(CCn4nc(C)cc4C)nc3c2cc1OC,-6.06
14,CCc1nnc(NC(=O)c2ccc3c(c2)CC(c2ccccc2)OC3=O)s1 (stereo not drawn),0.558
15,O=c1/c(=C/c2ccc(-c3ccc(Cl)cc3Cl)o2)sc2nc3ccccc3n12,1.88
16,Cc1nnc(N2CCC(C(=O)N3CCC(C(N)=O)CC3)CC2)c2nn(-c3ccccc3)c(C)c12,2.92
17,CC(C)COc1ccc2c(c1)c1c3n2CCNC3CCC1 (stereo not drawn),-1.96
18,Cc1sc2nc(N)c(C#N)c(-c3ccccc3)c2c1C,-4.72
19,CCOc1ccc(Cc2onc3c2C(=O)CC(c2ccccc2)C3)cc1OCC (stereo not drawn),2.57
20,CCCC1CCC(c2ccc(C(=O)N3CCOCC3)cc2)CC1 (stereo not drawn),7.56
21,Cc1cc(OCC(=O)N2CCOCC2)cc(C)c1Cl,3.66
22,Cc1ccc(S(=O)(=O)n2nc(C#N)c(C#N)c2N)cc1,3.59
23,CCC(=O)Nc1ccc(S(=O)(=O)N(C)Cc2ccccc2)cc1,2.79
24,CCN(CC)CCN(C(=O)c1ccc(C(C)=O)cc1)c1nc2c(C)cccc2s1,0.968
